Here are results for 83 compounds from ChEMBL document CHEMBL1201862, “PubChem BioAssay data set” (2004).

The structures appear in SMILES notation.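 A five-concentration, 48-hour dose response in 96-well plates underlies each endpoint, interpolated linearly between surrounding concentrations. Here, GI50 denotes the concentration required for 50% inhibition of growth.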 Calls of active or inactive are those of the source. Rule as the data show it: active = GI50 up to about 1.1 µM and inactive = higher.

The experiment relates to NCI-H322M. Nature of the experiment: inhibition of tumour cell growth, NCI panel, 48 h.
In the case of `O=C1C(Cl)=C(Nc2ccc(S(=O)(=O)Nc3ccccn3)cc2)C(=O)c2ccccc21`, the GI50 was inactive: 18.5 µM.
Consider `Cc1ccc(/C(C#N)=C/c2cccc([N+](=O)[O-])c2)cc1`, for which the GI50 was inactive: > 100 µM.
The same measure for `CC(C)NC1(C(N)=O)CCN(Cc2ccccc2)CC1`: inactive: > 100 µM.
For `Oc1ccc(Cl)cc1Cc1cc(Cl)cc(Cc2cc(Cl)ccc2O)c1O`, the GI50 is inactive: 2.81 µM.
For `Oc1ncnc2c1sc(=S)n2-c1ccccc1`, the GI50 was inactive: > 100 µM.
For `CC(=O)CC1(C)OC(N)=C(C#N)C1(C#N)C#N` (stereo not drawn), the GI50 is inactive: > 100 µM.
Take `Nc1ncnc2c(C3OC(CO)C(O)C3O)scc12` (stereo not drawn): the GI50 is active: 0.0678 µM.
The same measure for `O=c1[nH]c(C2CCCCC2)nc2cc(Cl)ccc12`: inactive: > 100 µM; for `CN1C2CCC1CC(CCNC(c1ccccc1)c1ccccc1)C2` (stereo not drawn): inactive: 36.7 µM; for `C#CC1(O)C(COP(=O)(O)OC(COCCCCCCCCCCCCCCCCCC)COP(=O)(O)OCC2OC(n3cc(C)c(=O)[nH]c3=O)CC2N=[N+]=[N-])OC(n2ccc(N)nc2=O)C1O` (stereo not drawn): active: 1.04 µM.
As to `COc1ccc(C2OC(c3ccncc3)=NN2C)cc1OC` (stereo not drawn), the GI50 is inactive: > 100 µM.
`CCCCCCCC1(N=[N+]=[N-])C(=O)c2ccccc2N(C)C1=O` (stereo not drawn): the GI50 was inactive: > 100 µM.
With `COc1cc2c3c(c1OC)C1(C=CC(=O)C=C1)CC3NCC2` (stereo not drawn), the GI50 was inactive: > 100 µM.
The same measure for `O=C1OC(CCCN2CCCCC2)(c2ccccc2)CC12CCCC2` (stereo not drawn): inactive: > 68.9 µM; for `NC(=O)c1cnc2sc3ccccc3n2c1=O`: inactive: > 100 µM.
Consider `O=C1c2cccc3cc([N+](=O)[O-])cc(c23)C(=O)N1CCCN1CCN(CCCN2C(=O)c3cccc4cc([N+](=O)[O-])cc(c34)C2=O)CC1`, for which the GI50 is active: 0.126 µM.
The same measure for `N#Cc1c(C#N)c(SSc2c(C#N)c(C#N)c(N)n2-c2cccc3ccccc23)n(-c2cccc3ccccc23)c1N`: inactive: > 41.3 µM; for `CCOC(=O)c1c(N2CCCC2)[nH]c(=O)c(C(c2cccs2)c2c(O)c(C(=O)OCC)c(N3CCCC3)[nH]c2=O)c1O`: inactive: > 100 µM.
Take `CCOC(=O)/C=C(\C(=O)OCC)n1cc(C)c(=O)n(Cc2cn(COCCOC(C)=O)nn2)c1=O`: the GI50 was inactive: 44.2 µM.
The same measure for `O=C(NC(C(F)(F)F)(C(F)(F)F)P(=O)(Cc1ccccc1)Cc1ccccc1)C(C(F)(F)F)C(F)(F)F`: inactive: 31 µM; for `CC(C)(C)OC(=O)c1ccc(NCc2cc(O)ccc2O)cc1`: inactive: 15 µM.
The same measure for `CC1NC(=O)C2=C1C(N)=NC(=O)C2` (stereo not drawn): inactive: > 100 µM.
The same measure for `Cc1cc(C)c2cc(N)c(Cl)nc2n1`: inactive: > 100 µM; for `COc1ccc(OC)c(NC2=NCCO2)c1`: inactive: > 100 µM.
Regarding `O=C(/C(=N/Nc1cn[nH]c(=O)c1Cl)c1ccccc1)c1ccccc1`, the GI50 was inactive: 38.3 µM.
The same measure for `COc1ccc(C2=Nc3c(nc(SC)[nH]c3=O)NC(c3ccccc3)C2)cc1` (stereo not drawn): inactive: 39.1 µM; for `c1ccc(-c2nnc(-c3ccccn3)c3c2C[C@@H]2C[C@@H]4Cc5c(-c6ccccn6)nnc(-c6ccccn6)c5[C@@H]4[C@H]32)nc1`: inactive: 59 µM.
The same measure for `COc1ccc(C=O)c(NC(=O)C(C)C)c1`: inactive: 97.5 µM.
The same measure for `O=c1[nH]nc(-c2ccccc2)n1-n1cccc1`: inactive: > 100 µM; for `O/N=C/c1ncccc1C1OCCO1`: inactive: > 100 µM; for `CC(C)(C)OC(=O)[C@@H]1CCC(=O)N1C1(c2ccccc2)c2ccccc2-c2ccccc21`: inactive: 49 µM.
As to `CC(=O)N(C(C)=O)C1=C2c3ccccc3N(S(=O)(=O)c3ccccc3)C2n2c(=O)n(-c3ccccc3)c(=O)n2C1` (stereo not drawn), the GI50 was inactive: 39.5 µM.
`O=C(NCC(O)COc1ccccc1)c1ccccc1O` (stereo not drawn): the GI50 is inactive: > 100 µM.
On to `CCCCOCCOCCOC1=C(Cl)C(=O)c2c(O)ccc(O)c2C1=O`, for which the GI50 is inactive: 1.65 µM.
The same measure for `NS(=O)(=O)c1nnc(NS(=O)(=O)c2ccc([N+](=O)[O-])cc2)s1`: inactive: > 100 µM; for `NCCCCc1cc(O)c2c(c1O)C(=O)c1ccccc1C2=O`: inactive: 6.12 µM; for `CC(CCN)(CCN)[N+](=O)[O-]`: inactive: > 100 µM.
The same measure for `NC(=O)CC1(O)C=CC(=O)C=C1`: inactive: > 100 µM; for `CCOC(=O)C(=Cc1cc(OC)ccc1OC)C(=O)OCC`: inactive: 14.9 µM; for `CC1=CCC23C(C1)OC(Br)(C=CC2(C)O)C3(C)C` (stereo not drawn): inactive: > 100 µM.
The same measure for `COC(=O)C(C(=O)C(=O)Nc1c(C)cccc1C(C)(C)C)c1nc2ccc(Cl)cc2nc1O` (stereo not drawn): inactive: > 100 µM.
As for `CN(C)CCNC(=O)c1cccc2c(NC(CS)C(=O)O)c3ccccc3[n+](C)c12` (stereo not drawn), the GI50 is inactive: 58.3 µM.
The same measure for `CN1C(=S)C(c2ccccc2)Sc2ccccc21` (stereo not drawn): inactive: > 100 µM; for `Cc1ccc(NC(=O)C(=O)CC(=O)c2c(C)[n+]([O-])c3ccccc3[n+]2[O-])cc1C`: inactive: > 100 µM; for `O=C(CCCl)NN=C1NCCCCN1`: inactive: > 100 µM.
As to `OCC#CCNCl`, the GI50 is inactive: > 100 µM.
Turning to `O=C1OC(c2ccc([N+](=O)[O-])cc2)=N/C1=C\c1ccc(O)cc1`, the GI50 is inactive: > 100 µM.
The same measure for `CCOC(=O)c1ccc(C(=O)/C(C#N)=C2\CCCN2C)[nH]1`: inactive: > 100 µM; for `CC(C)C(C(=O)O)N1C(=O)c2ccccc2C1=O` (stereo not drawn): inactive: > 100 µM.
The same measure for `COc1ccc(NC(=O)CCc2cc(-c3ccc(O)c(OC)c3)nc(NC#N)n2)cc1`: inactive: > 100 µM; for `CN(C)CCNCc1ccc2c(-c3ccccc3)nc3cc(Cl)c(Cl)cc3n12`: inactive: 8.55 µM; for `CCCNC(=O)Cn1c2c(c3ccccc31)CCCC2`: inactive: 57.4 µM.
With `CN(C)c1ccc(C2SCC(=O)N2c2ccc(Oc3ccc(Cl)cc3)c(Cl)c2)cc1` (stereo not drawn), the GI50 was inactive: 25.5 µM.
The same measure for `Cc1cnc2c(c1)C(=O)N(c1ccc([N+](=O)[O-])cc1)S2(=O)=O`: inactive: > 100 µM; for `Cc1ccc(C(=O)/C=C/c2cccc([N+](=O)[O-])c2)cc1`: inactive: > 100 µM.
On to `COC(=O)[C@H](C)N1C(=O)N[C@@H](C(C)C)C1=O`, for which the GI50 is inactive: > 100 µM.
The same measure for `COc1c(O)c(OC)c2oc(-c3ccc(O)cc3)c(OC)c(=O)c2c1O`: inactive: 68.7 µM; for `Cc1cn2c(=O)c3ncn(C4OC(CO)C(O)C4O)c3n(C)c2n1` (stereo not drawn): inactive: > 100 µM; for `COc1ccc(/C=C2\c3cc(OC)c(OC)cc3CCN2C(=O)c2ccccc2)cc1OC`: inactive: > 100 µM.
The same measure for `N#CC(C#N)=CNC(=S)Nc1ccc(S(=O)(=O)Nc2nccs2)cc1`: inactive: > 100 µM; for `COc1ccc2[nH]c3c([N+](=O)[O-])ccc(Cl)c3c(=O)c2c1`: inactive: 33.8 µM; for `N#CC1CC2(C1)OCCS2` (stereo not drawn): inactive: > 100 µM.
With `CCN(CC)c1ccc2nc3ccc(/N=N/c4c(O)ccc5ccccc45)cc3[n+](-c3ccccc3)c2c1`, the GI50 was inactive: > 100 µM.
The same measure for `CCC(C)(O)c1cn(-c2ccc(S(=O)(=O)O)cc2)nn1` (stereo not drawn): inactive: > 100 µM; for `O=C(O)C(CS)NCc1c2ccccc2nc2ccccc12` (stereo not drawn): inactive: 69.5 µM; for `CN(C(=O)C12C3(C(=O)C(C)(C)C)C4C5(C#N)C3C1(C(=O)C(C)(C)C)C5C42C(=O)C(C)(C)C)C(C)(C)C` (stereo not drawn): inactive: > 50 µM.
Take `COc1ccc(C(c2ccccc2)(c2ccc(OC)cc2)N2C(=O)NC3C(CCCCC(=O)NCCCCCCOP(OCCC#N)N(C(C)C)C(C)C)SCC32)cc1` (stereo not drawn): the GI50 was inactive: 15.8 µM.
The same measure for `Cc1ccc(C2=C(c3ccccc3)C(O)(c3ccc(C)cc3)C(c3ccccc3)=C2c2ccc(C)cc2)cc1`: inactive: > 100 µM; for `O=c1oc2ccc([N+](=O)[O-])cc2c(Nc2ccc3c(c2)Oc2ccccc2O3)c1[N+](=O)[O-]`: inactive: 29.2 µM.
The same measure for `C=CC1(c2ccc(Cl)c(Cl)c2)OCCO1`: inactive: > 100 µM; for `O=C(Nc1ccc(Cl)cc1)NS(=O)(=O)c1c(-c2ccccc2)oc2ccccc2c1=O`: inactive: > 100 µM; for `COC(=O)/C(=N\NC(=S)NN)C(C(=O)C(=O)Nc1ccccc1C(N)=O)c1nc2ccccc2nc1O` (stereo not drawn): inactive: > 100 µM.
Consider `Cc1cc(C)nc(NC(P(=O)(O)O)P(=O)(O)O)n1`, for which the GI50 was inactive: > 100 µM.
The same measure for `CC1=CC[C@@H](C(C)(C)O)C[C@@H]1O`: inactive: > 5000 µM; for `CC(C)[Si](OCC1CC(C#N)OC(C)(C)O1)(C(C)C)C(C)C` (stereo not drawn): inactive: 23.5 µM.
With `O=c1oc2cc(O)ccc2cc1-c1nc2ccccc2o1`, the GI50 was inactive: 34.4 µM.
Regarding `O=C(CBr)NCCc1c[nH]c2ccccc12`, the GI50 is inactive: 2.74 µM.
`C#CCOCn1cnc2c(S)ncnc21`: the GI50 is inactive: > 100 µM.
As for `COc1cc2c3c(n(C)c(=O)c2cc1OC)-c1cc2c(cc1/C3=C\CCCCl)OCO2`, the GI50 is inactive: 40.6 µM.
`Cc1cc(NCc2ccccc2)c2ccccc2[n+]1CCCCCCCCCC[n+]1c(C)cc(NCc2ccccc2)c2ccccc21.[O-][Cl+3]([O-])([O-])[O-].[O-][Cl+3]([O-])([O-])[O-]`: the GI50 is active: 0.805 µM.
For `CN(C)CCCCC1CCN(CC(=O)N2c3ccccc3NC(=O)c3ccccc32)CC1`, the GI50 is inactive: > 10 µM.
For the compound `COc1ccc(-c2cc(O)c3cc(OC)c(OC)cc3n2)cc1OC`, the GI50 was inactive: > 100 µM.
The same measure for `O=C1CC(c2cccc(Cl)c2)Oc2ccccc21` (stereo not drawn): inactive: 33.9 µM.
